In all, about 110,000 compounds were measured (“z-score”: median about -0.1, highest 2% from about 2 on). This is one part of the list. Active and inactive are the calls of the source.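 Rule for the calls: active = z-score in the third read window above 3 or below -3; inactive = the rest.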
Each molecule was assayed against Metabotropic glutamate receptor 8 (Rattus norvegicus) (UniProt P70579) (assay: rat mGluR8 modulators via GIRK flux, primary screen, cell-based, thallium flux, HTS (AID 488969)). Conditions: HEK293 rat mGluR8, GIRK (G protein-gated inwardly rectifying potassium channel) thallium flux, FluoZin2; at 10 µM; stronger effect = higher value; submaximal glutamate (EC20) added with thallium.
UniProt P70579, sequence (P70579 whole entry, looked up): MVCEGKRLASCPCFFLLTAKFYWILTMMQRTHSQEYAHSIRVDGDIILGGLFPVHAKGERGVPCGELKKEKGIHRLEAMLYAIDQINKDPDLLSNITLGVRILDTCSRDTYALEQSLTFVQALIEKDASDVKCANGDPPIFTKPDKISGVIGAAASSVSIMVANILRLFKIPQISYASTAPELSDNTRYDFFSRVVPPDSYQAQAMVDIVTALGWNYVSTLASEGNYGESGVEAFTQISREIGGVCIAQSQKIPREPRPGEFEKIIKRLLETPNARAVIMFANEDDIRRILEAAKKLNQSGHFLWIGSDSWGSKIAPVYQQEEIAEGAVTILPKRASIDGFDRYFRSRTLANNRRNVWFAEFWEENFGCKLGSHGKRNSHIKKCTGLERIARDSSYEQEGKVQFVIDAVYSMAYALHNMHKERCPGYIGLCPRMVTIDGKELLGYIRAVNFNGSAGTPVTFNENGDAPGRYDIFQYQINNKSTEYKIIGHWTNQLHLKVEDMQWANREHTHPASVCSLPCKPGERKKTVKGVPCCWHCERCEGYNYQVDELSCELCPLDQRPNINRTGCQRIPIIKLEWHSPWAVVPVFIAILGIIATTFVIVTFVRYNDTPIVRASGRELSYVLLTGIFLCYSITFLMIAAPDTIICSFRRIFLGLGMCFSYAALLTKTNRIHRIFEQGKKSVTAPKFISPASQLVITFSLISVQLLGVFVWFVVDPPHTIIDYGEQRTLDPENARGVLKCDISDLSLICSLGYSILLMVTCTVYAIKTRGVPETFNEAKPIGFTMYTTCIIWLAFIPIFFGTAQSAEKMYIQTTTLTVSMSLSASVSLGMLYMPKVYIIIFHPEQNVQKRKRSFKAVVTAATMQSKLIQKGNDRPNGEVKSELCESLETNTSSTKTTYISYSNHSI
`COc1ccc(-c2c(C(=O)O)nc3ccccc3c2C(=O)O)cc1` gave a z-score of -0.167. For `Cn1c(=O)c2c(nc(SCCNS(=O)(=O)c3ccccc3)n2C)n(C)c1=O`, the z-score was 0.393. `COC(=O)c1[nH]c2cccc(OC)c2c1NC(=O)CCN1CCN(c2ccccc2F)CC1` showed a z-score of 0.0528. `O=C(Nc1ccc(OC(=O)c2ccco2)cc1)c1ccco1` showed a z-score of -1.04. Work on `CCOC(=O)c1ccc(NC(=O)CSc2nnc(CNC(=O)c3ccccc3F)o2)cc1` yielded a z-score of -0.186. With `COc1cccc(-c2nc(CS(=O)CC(=O)NCc3ccccc3)c(C)o2)c1` (stereo unspecified) the z-score was -0.366. For `CCCCN(C(=S)Nc1ccccc1)C1CCS(=O)(=O)C1` (stereo unspecified), the z-score was -0.37. Work on `c1ccc(C(c2ccccc2)c2nc(-c3cccnc3)no2)cc1` yielded a z-score of -0.277. With `CCCCn1c(SCC(=O)N2CCC(C(=O)OCC)CC2)nc2cc(S(N)(=O)=O)ccc21` the z-score was -1.11. `O=C(Nc1ccc(S(=O)(=O)NCCc2ccccc2)cc1)c1ccc(Br)o1` gave a z-score of -0.241. `Cc1ccccc1NC(=O)CNC(=O)c1ccc(C(F)(F)F)cc1` was tested, and the z-score was -0.0901. In the case of `O=C(O)CCC(=O)NC1CCCCCCC1`, the z-score is reported as active: 3.34. `O=C(Nc1nc(=O)c2ccccc2s1)c1ccc(F)cc1` was tested, and the z-score was active: 16.3. `COc1ccccc1NC(=O)CC1COc2ccccc2O1` (stereo unspecified) gave a z-score of 0.0423. With `CCCS(=O)(=O)N1CCn2c(nc3ccccc32)C1` the z-score was -0.424. With `COc1ccc(CCNC(=O)C2CCN(S(=O)(=O)N3CCCCC3)CC2)cc1OC` the z-score was 0.168. In the case of `Cc1ccc(S(=O)(=O)NC2(C(=O)O)CCCCC2)cc1`, the z-score is reported as 0.393. `C=CCN1C(=O)C(O)(CC(=O)c2ccc(Cl)cc2)c2ccccc21` (stereo unspecified) was tested, and the z-score was 0.285. `COc1ccc(CN2CC(C(=O)N3CCOCC3)CC2=O)cc1` (stereo unspecified) was tested, and the z-score was -0.0405. For `COc1ccc(C2CC(=O)n3nc(C45CC6CC(CC(C6)C4)C5)nc3S2)cc1OC` (stereo unspecified), the z-score was 0.344. `CCCC1(c2ccccc2)NC(=O)N(CC(=O)Nc2sc(-c3ccccc3)cc2C(=O)OCC)C1=O` (stereo unspecified) was tested, and the z-score was -0.0965. Work on `Oc1ccccc1-c1nc(NCCN2CCOCC2)c2ccccc2n1` yielded a z-score of -1.2. `Cc1cc(C)c(/C=N/NC(N)=O)c(C)c1/C=N/NC(N)=O` was tested, and the z-score was 0.0401. Work on `CC(=O)N1CCc2cc(S(=O)(=O)NCCN3CCC(C)CC3)ccc21` yielded a z-score of 0.0551. Molecule `COC(=O)c1c(N)sc2c1CCN(c1ncc(C(F)(F)F)cc1Cl)C2` has a z-score of -0.112. For `O=C(CSc1ccc(-c2ccco2)nn1)c1ccccc1`, the z-score was active: 7.29. Molecule `Cc1ccc2[nH]c(=O)c(CN(CC3CCCO3)C(=O)c3ccncc3)cc2c1` (stereo unspecified) has a z-score of 0.35. In the case of `CCn1cc(C(=O)NCc2ccco2)c(=O)c2cc(S(=O)(=O)N3CCc4ccccc4C3)ccc21`, the z-score is reported as -0.51. For `CC(C)Cn1c(=O)[nH]c2ccccc21`, the z-score was 0.476. Work on `Brc1ccc2c(c1)OCCOCCOc1cc(Br)ccc1OCCOCCOCCO2` yielded a z-score of -0.346. Work on `O=C(NCc1ccc(Cl)cc1)C1CCN(S(=O)(=O)c2cc([N+](=O)[O-])ccc2Cl)CC1` yielded a z-score of 0.0626. Work on `O=C(NNC(=O)c1cc2cc3ccccc3nc2s1)c1cccc(Cl)c1` yielded a z-score of 0.21. In the case of `Cc1ccsc1/C=N/n1c(-c2cccnc2)n[nH]c1=S`, the z-score is reported as -0.554. Work on `Cc1ccc(-c2nnn(CC(=O)N(Cc3cccs3)C(C(=O)NC3CCCCC3)c3ccco3)n2)o1` (stereo unspecified) yielded a z-score of 0.915. `CN1CCN(C(=O)CCn2nc(-c3ccccc3)c3ccccc3c2=O)CC1` showed a z-score of 0.654. Work on `O=C1C2ON(c3ccc(Br)cc3)C(c3cccnc3)C2C(=O)N1C1CCCCC1` (stereo unspecified) yielded a z-score of -0.0496. In the case of `CCOC(=O)c1cc2n(n1)C(C(F)(F)C(F)(F)F)CC(C)N2` (stereo unspecified), the z-score is reported as -0.125. Work on `CCc1ccc(OCC(=O)NCCN(C)C)c(Br)c1` yielded a z-score of 0.426. `NC(=O)c1ccc(NC(=O)c2ccc3c(c2)OCO3)cc1` gave a z-score of -0.0572. With `CC(=O)Nc1nc(CC(C)C)cc2c1c(=O)oc1ccccc12` the z-score was -0.0373. `CCN(CC)CCCn1c(C)cc2c(c1=O)C(c1ccccc1)C(C#N)=C(N)O2` (stereo unspecified) showed a z-score of 0.538. `Cc1ccc2nc(-c3ccc(NS(=O)(=O)c4ccccc4)cc3)sc2c1` gave a z-score of -0.202. Work on `O=C(CN1CCCc2ccccc21)NCc1ccccc1Cl` yielded a z-score of -0.0417. In the case of `COc1cc(/C=C2/CCC/C(=C\c3cc(O)c(OC)c(Cl)c3)C2=O)cc(Cl)c1O`, the z-score is reported as -0.0835. `COc1cccc(-n2ccnc2SCC(=O)Nc2nccs2)c1` showed a z-score of -0.0634. `Cn1c(N2CCN(C(=O)Nc3ccc(C(F)(F)F)cc3)CC2)nc2ccccc21` showed a z-score of 0.119. Work on `CC(C)CNC(=O)c1ccc(Cl)c(Cl)c1` yielded a z-score of -0.0712. `CN1CCCC(OC(=O)c2ccc3c(c2)OCCO3)C1` (stereo unspecified) gave a z-score of 0.119. `O=C(COC(=O)c1n[nH]c2ccccc12)NC(=O)NC1CCCCC1` was tested, and the z-score was -0.0546. With `O=C(NCCc1ccccc1)C1CCC(Cn2c(=O)c3ccccc3n(Cc3cccnc3)c2=O)CC1` (stereo unspecified) the z-score was -0.39. Work on `COc1cc2ncnc(NCc3ccccc3C)c2cc1OC` yielded a z-score of -0.403. In the case of `c1cncc(-c2nc(-c3cccs3)cs2)c1`, the z-score is reported as 0.113. Molecule `CC(C)COC(=O)CCNc1n[nH]c(=O)[nH]c1=O` has a z-score of 0.184. For `COc1ccc(NC(=O)CCn2cccc2)cc1`, the z-score was 0.0919. For `O=C1CC(=O)N(CCc2ccc(F)cc2)C(=O)N1`, the z-score was -0.302. `CCOC(=O)c1sc(NC(=O)c2ccc(S(=O)(=O)N(C)C)cc2)nc1C` was tested, and the z-score was -0.107. Molecule `c1coc(CNC2CCCCC2)c1` has a z-score of -0.0676. Work on `O=C(Nn1cnnc1)c1ccncc1` yielded a z-score of -0.317. `CCOC(=O)c1sc(N)nc1C(C)(C)C` gave a z-score of -0.244. `Oc1c(CN2CCN(c3ccc(F)cc3)CC2)cc(Cl)c2cccnc12` showed a z-score of -0.0554. Molecule `CNC(=O)/C(=C\c1cccc(Oc2ccccc2)c1)NC(=O)c1ccccc1` has a z-score of 0.601. `CCC1CCCCN1S(=O)(=O)c1ccc(NC(=O)c2cccs2)cc1` (stereo unspecified) was tested, and the z-score was -0.41. `O=C(Nc1ccc2c(c1)N(Cc1ccccc1)C(=O)c1ccccc1S2)NC1CC1` showed a z-score of -0.663. With `CCOc1cc(C(=O)Nc2ccc(NC(C)=O)cc2)ccc1OCC(=O)N1CCCCC1` the z-score was -0.343. In the case of `COc1cc(/C=N/Nc2snc(SC)c2C#N)ccc1O`, the z-score is reported as 0.125. `CNc1nc(C)c(C#N)cc1C(C)=O` was tested, and the z-score was 0.0246. `O=S(=O)(c1ccccc1)n1c(C(O)c2ccccn2)cc2ccccc21` (stereo unspecified) was tested, and the z-score was 0.524. `CC12CN3CC(C)(CN(C1)C3c1ccc(Br)cc1)C2=O` (stereo unspecified) was tested, and the z-score was 0.119. In the case of `COc1cccc(C2=Nn3c(nnc3-c3ccccc3O)SC2)c1`, the z-score is reported as -0.118. In the case of `Cc1ccc(C(=O)NCC(=O)OCC(=O)c2cc(C)n(Cc3ccco3)c2C)cc1`, the z-score is reported as -0.049. Work on `COc1ccc(C)cc1NC1=C(Cl)C(=O)N(C2CCCCC2)C1=O` yielded a z-score of -0.0567. Molecule `Cc1ccc2c(c1)c(Sc1ccccc1)c(CC(=O)O)n2C` has a z-score of -0.191. Molecule `CC(OC(=O)CN1C(=O)NC(C)(C)C1=O)C(=O)c1ccccc1` (stereo unspecified) has a z-score of -0.0313. `CCCOc1ccc(N2CC(C(=O)Nc3ccc4c(c3)OCO4)CC2=O)cc1` (stereo unspecified) was tested, and the z-score was 0.624. In the case of `COC(=O)N/N=C/c1c(C)cc(C)cc1C`, the z-score is reported as -0.378. `O=C(CCn1c(=O)c2sccc2n(CC(=O)NCc2ccco2)c1=O)NCc1ccccc1` was tested, and the z-score was 0.319. In the case of `COc1ccc(/C=N/NC(=O)c2ccncc2)cc1CSc1nc2ccccc2s1`, the z-score is reported as -0.203. Molecule `CC(C)c1cc(C(=O)NCc2ccco2)no1` has a z-score of 0.251. Molecule `c1ccc(-n2nnnc2OCCOc2nnnn2-c2ccccc2)cc1` has a z-score of -0.166. For `CCC(=O)c1ccc(OCCn2cncn2)cc1`, the z-score was -0.449. Work on `O=C(Nc1ccc(NC(=O)c2sc3ccccc3c2Cl)cc1Cl)c1ccco1` yielded a z-score of -0.23. With `C=CCn1c(SCC(=O)Nc2ccc3c(c2)OCO3)nnc1-c1ccccc1` the z-score was -0.167. `COc1ccc(CN(C)CC(=O)Nc2cc(OC)c([N+](=O)[O-])cc2C)c(OC)c1` was tested, and the z-score was -0.503. Work on `CC(=O)c1sc(Nc2ccccn2)nc1C` yielded a z-score of 0.82. `COc1ccc(S(=O)(=O)Nc2ccc(S(=O)(=O)Nc3ccc(F)cc3)cc2)cc1C` showed a z-score of -0.347. For `Cc1ccc(NC(=O)CSc2nnc(CNC(=O)c3c(F)cccc3Cl)o2)cc1`, the z-score was -0.109. `COc1ccc(C(=O)NCc2nnc(SCC(=O)N3CCc4ccccc43)o2)cc1OC` showed a z-score of -0.164. Molecule `COc1ccccc1C1NC(=O)NC(C)=C1C(=O)Nc1cccc(C)c1C` (stereo unspecified) has a z-score of -0.0278. For `O=C(CC1NCCNC1=O)Nc1ccc2c(c1)OCO2` (stereo unspecified), the z-score was 0.104. Molecule `COC(=O)c1ccc(Cl)c(NC(=O)CN2CCN(Cc3ccccc3)CC2)c1` has a z-score of -0.236. Work on `COCc1cc(C)nc(SCC(=O)Nc2cccc3cccnc23)c1C#N` yielded a z-score of -1.69. Molecule `CCOC(=O)c1sc(NC(=O)c2c(C)noc2C)c(C(=O)OCC)c1C` has a z-score of 0.241. For `Cc1cc(OCC(=O)N2CCCCCC2)ccc1[N+](=O)[O-]`, the z-score was 0.417. `CC1CCN(S(=O)(=O)c2ccc3c(c2)oc(=O)n3CC(=O)N2CCc3ccccc3C2)CC1` was tested, and the z-score was -0.172. `O=[N+]([O-])/C=C/c1c(OCc2ccccc2)ccc2ccccc12` showed a z-score of -0.339. `CC(=O)N(CC(=O)O)c1ccccc1C(=O)O` was tested, and the z-score was -0.232. For `COc1cc(-c2ccc(NC(=O)CN3CCC(C)CC3)c(OC)c2)ccc1NC(=O)CN1CCC(C)CC1`, the z-score was -0.186. Molecule `COC(=O)COn1c(SC(C)C)nc2ccccc2c1=O` has a z-score of 2.57. In the case of `CCc1cc(=O)oc2cc(OS(C)(=O)=O)ccc12`, the z-score is reported as 0.167. `CCOc1c(Br)cc(CNc2ncn[nH]2)cc1OC` gave a z-score of 0.5. With `COC(=O)c1ccc(C(=O)OC)c(NC(=S)N2CCN(c3ccccc3)CC2)c1` the z-score was 0.0318. `Cc1cccc(S(=O)(=O)CC(=O)Nc2nc(-c3ccccc3)cs2)c1` gave a z-score of -0.0717. In the case of `O=C(CSc1nc(-c2ccc(F)cc2)cs1)N1CCOCC1`, the z-score is reported as active: 3.29. With `CCn1c(N2CCN(C(=O)NC3CCCCC3)CC2)nc2ccccc21` the z-score was -0.00683. Molecule `O=C(NCCN1CCN(Cc2ccc([N+](=O)[O-])cc2)CC1)C(=O)Nc1ccccc1` has a z-score of 0.103. Molecule `Cc1ccc(C(C(=O)NC2CCCC2)N(Cc2ccc3c(c2)OCO3)C(=O)Cc2cccs2)cc1` (stereo unspecified) has a z-score of -0.235. In the case of `Cc1sc2nc(C(C)C)nc(SCC(=O)NCc3ccco3)c2c1C`, the z-score is reported as active: 17. `O=C1CC(N2CCC(O)(c3ccc(Cl)cc3)CC2)C(=O)N1` (stereo unspecified) was tested, and the z-score was 0.198. `CCCOc1ccc(-c2nc(C#N)c(N3CCN(CC)CC3)o2)cc1` showed a z-score of -0.498. For `CC(C)C(c1nnnn1Cc1cccs1)N1CCN(c2ccccc2)CC1` (stereo unspecified), the z-score was -0.149. For `C=CCNc1sc(C(=O)c2ccc(C)cc2)c(N)c1C#N`, the z-score was -0.454.
